Measured values as given in publication PMC12136788.
The other results are listed elsewhere or left out.

T1: UNK ZnF1-3 (human, UniProt Q9C0B0 31-174)
T1 sequence: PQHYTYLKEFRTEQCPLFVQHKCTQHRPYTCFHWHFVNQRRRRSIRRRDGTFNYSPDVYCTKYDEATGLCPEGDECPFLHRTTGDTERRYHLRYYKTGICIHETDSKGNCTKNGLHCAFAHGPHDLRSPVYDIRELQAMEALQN

B1: 108206848_108207304_4261_CDS_ENSMUSG00000068740_ENSMUST00000090558|mouse|control|control (ssRNA)
RNA: GGGAGUUCUACAGUCCGACGAUCCACCUCGAGAGCCACAAAGUCGUGCUUCUCAUUGAAGCGCCCAUUGUACAGCAGUAGCCCGUUACGCUCCUUGGUAGCAAACGAGAGGGCCAGGGUGAAGUGGAAGCGCUGGCGCAGGCCCAACAGAGGAUUGAGCAUCA
B2: 134337774_134337894_788_CDS_ENSMUSG00000042502_ENSMUST00000166791|mouse|control|control (ssRNA)
RNA: GGGAGUUCUACAGUCCGACGAUCCAUGUCCAGGGAGGGUGGAGGUGUGGGGUCAUGGGAUCCCUGGGCCCGACACCCCAAACCCUUCAGUCGCAUAGCCAACCGUUCCCUUGUUUCCUGGUACACACCAAGGUUGCCUCGUGCCAACAGAGGAUUGAGCAUCA
B3: chr1:220276048:220276049:+_ENSG00000067704_ENST00000302637|hu_hu|hu_hu_hu_mus_True|28_68 (ssRNA)
RNA: GGGAGUUCUACAGUCCGACGAUCGCAAAUUGCCUGGUUGGCGGGAAUUGUCCAAGGCUGGGUGGUCCAGACCAAAACGCUAACAGGGGAUGAGGCAUCUGUAAGAGAUGCCAAUUUCGGAGGAGGUCUCAGGAGGGGGAAUCUCAACAGAGGAUUGAGCAUCA
B4: chr1:244855233:244855234:+_ENSG00000121644_ENST00000302550|hu_mus|hu_hu_hu_mus_True|48_88 (ssRNA)
RNA: GGGAGUUCUACAGUCCGACGAUCCAUCAGAUGGUAGGCGUUGCCCUUGUAUUCUUUCCCCAGUUCUUCUACAAUUUUCUCUAUAUCAUCUUCUAGGAAGUCCGUACUUCCUAGAACAACAGCUUCUUUAAAUUUAAAUGUUUCCAACAGAGGAUUGAGCAUCA
B5: chrX:12193597:12193598:+_ENSMUSG00000031007_ENSMUST00000033313|mus_mus|FALSE|FALSE (ssRNA)
RNA: GGGAGUUCUACAGUCCGACGAUCACAAAGCUAGUCUCUUCUGAAAUCAACAUAGUAUUUUUAAUAAUUUUAAUAUCUCUACUAAACCACACGGAUCACCAAACUUGCAGAAGAGAUUAAAAACAGCUAGCUUGCUAGUCAUAUCAACAGAGGAUUGAGCAUCA
B6: chrX:20248820:20248821:+_ENSMUSG00000001924_ENSMUST00000001989|mus_mus|mus_mus_mus_hu_True|68_98 (ssRNA)
RNA: GGGAGUUCUACAGUCCGACGAUCGGCGAAGUCCGUCAUCACAAAGUCAGGUUCUGCCAGUGAGGCCGGCAAGGAUUUAAAGCUAAUCUUCUUAGGUACUUUGACCUGACUGACGAUGCCUCCACGGAUGUAGUCGGAGAAGUUCAACAGAGGAUUGAGCAUCA
B7: chr4:17845017:17845018:+_ENSG00000109805_ENST00000514176|hu_mus|hu_hu_hu_mus_False|38_98 (ssRNA)
RNA: GGGAGUUCUACAGUCCGACGAUCGCUCUCUUAACUUGAUCUUCAUUUAAGGAACUCUGCAAGGUUAAGUUUACUUUUCUGUAGCGCAGCUGUUUUGCUCGUCUUGGGUAAUCUCAUCUUCAUUUCUGAUGGUGGUUCAUGAUCCAACAGAGGAUUGAGCAUCA
B8: chr7:90019206:90019207:+_ENSMUSG00000057706_ENSMUST00000082237|mus_mus|FALSE|FALSE (ssRNA)
RNA: GGGAGUUCUACAGUCCGACGAUCCUUUAAUAAAGCUGCAGGGUCCUGGCUGUACAGAACUCCUGGCCCUUCCAUGAACAUUCAAAAAGGAUCCACUUGUGUUCUAGAACGAGCGCUGUAGGAACCCACCCACAAAGGGAAACACAACAGAGGAUUGAGCAUCA
B9: 222906797_222906917_2443_3pUTR_ENSG00000162819_ENST00000340934|human|control|control (ssRNA)
RNA: GGGAGUUCUACAGUCCGACGAUCAUCUUUAACUAUAAGUGACUUUUUAUUCUCCACCAGAAAAGAUAAAUGACUGAGAAUGUAAGUCUGCGCUCUGAUUAACACAAUGGAGAAACGGAAAAACUAUCUCUGUUAAAAACUGAUCAACAGAGGAUUGAGCAUCA
B10: chr4:2840174:2840175:+_ENSG00000087266_ENST00000503393|hu_hu|FALSE|FALSE (ssRNA)
RNA: GGGAGUUCUACAGUCCGACGAUCGAACUACGAUACAGCCAAACAAUGGAAGUUUUUAGCAAUGAACAUGCACAAACUAUACUACGCACAGCAACAUGAAUAAAUCUCACAGACAUAAUAACGAGCCAAAGAAGCCAGCUGCCACAACAGAGGAUUGAGCAUCA
B11: chr14:76904430:76904431:+_ENSMUSG00000022010_ENSMUST00000022587|mus_mus|mus_mus_mus_hu_True|1_68 (ssRNA)
RNA: GGGAGUUCUACAGUCCGACGAUCUGCAGCCAAAAACACCCUCGUGGAAAAAAAGAGGGAACACCAGCAGCCUGGUUUAAGCUAGAUAAAAUCUUCUGGCUUUCCGCAGCCCAGGGAGAAACAGAAAACGGCAGCCCUCGAGUGCAACAGAGGAUUGAGCAUCA
B12: chr5:71493517:71493518:+_ENSG00000131711_ENST00000296755|hu_hu|FALSE|FALSE (ssRNA)
RNA: GGGAGUUCUACAGUCCGACGAUCUUCUUUUAUUGGUGCAAAGUCUGUGCUUUUCCCUUCCUGUUUGUCUUGGUAAAGACUAGUAGAAGUCAUUUCAGAAACUGGACUUACUUGGUCUGGAGAGCCUUGUUUUCCACUCUUUUCCAACAGAGGAUUGAGCAUCA
B13: chr15:80044675:80044676:+_ENSMUSG00000042428_ENSMUST00000044970|mus_hu|FALSE|FALSE (ssRNA)
RNA: GGGAGUUCUACAGUCCGACGAUCCCUCUUCCAUCCAUACACAAGCAUGUAUUUACAGGGACACAGCAAUACAGACAUGUACAAAUACACACCAAGCAUGCACCCAUGCCCAUAAAUAUACACACACACACGCACAAACAUGAGCAACAGAGGAUUGAGCAUCA
B14: 116090195_116093479_488_CDS_ENSMUSG00000029518_ENSMUST00000031492|mouse|control|control (ssRNA)
RNA: GGGAGUUCUACAGUCCGACGAUCACAGUUCUGGUUGAUUUCAUGAAGCCAUCGCUUGACGUUGACAAAGGACUCGGCACUAGUGACGUCGUAAACCACAAUGACCCCAUGGGUCCCCCGAUAAUACGUAGAGGUGAUGGUGCGCAACAGAGGAUUGAGCAUCA

Molecular target: T1, UNK ZnF1-3
Assay: nsRBNS (natural sequence RNA bind-n-seq); RBNS binding buffer (assumed for nsRBNS): 25 mM Tris pH 7.5, 150 mM KCl, 3 mM MgCl2, 0.01% Triton X-100, 500 ug/ml BSA, 20 U/ml SUPERase-In, 4 C; UNK is unkempt and MSI1 is Musashi-1; names of the RNAs are library labels; protein concentration not given here; high values mean tight binding

Binder	binding signal [enrichment R]
B1	1.09
B2	0.426
B3	2.94
B4	1.19
B5	1.86
B6	0.755
B7	0.334
B8	0.939
B9	0.749
B10	1.58
B11	1.76
B12	0.419
B13	1.52
B14	0.748
